From the supplement of paper PMC10126150
Values marked as one replicate rest on one cluster of the flow cell; about a third of the high ones do not repeat.
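Also: ATP exposure 15 min at 22 °C before imaging.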

Each sequence was assayed on ATP (assay: switch fluorescence ratio, 500 uM ATP over buffer (Cy3 cluster intensity, sum of 5 cycles each) (fold (ratio)); higher = stronger signal-on switching upon ATP binding; sequences stand for … in TCGTCGGCAGCGTCAGATGTGTATAAGAGACAGTTTTTTTTTTTTTTTTTTTTTTTTT…TC). Conditions: aptamer strand: ATP DNA aptamer (quencher-CACCTGGGGGAGTATTGCGGAGGAAGG + anchor), 100 nM annealed; ATP concentration: 500 uM; one replicate.
How it was run: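 Clusters carrying Cy3-labelled switching strands on a modified Illumina MiSeq flow-cell were annealed to 100 nM quencher-labelled ATP aptamer and imaged in selection buffer. They were imaged again after 15 min with 500 uM ATP at 22 °C, over five buffer/ATP cycles with NaOH stripping and re-annealing in between. For each cluster, the fluorescence ratio is the summed Cy3 intensity of the target cycles divided by that of the buffer cycles, averaged per switch-domain sequence. Clusters outside 100-1000 RFU were left out.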
AGAGCCTCAG showed a switch fluorescence ratio of 1. AGAGCCTTAA gave a switch fluorescence ratio of 1.02. With AGAGCGTCAT the switch fluorescence ratio was 0.995. Sequence AGAGCGTTCT has a switch fluorescence ratio of 0.972. AGAGCTACCT was tested, and the switch fluorescence ratio was 1.1. In the case of AGAGCTGGG, the switch fluorescence ratio is reported as 1.01. AGAGCTTCGA showed a switch fluorescence ratio of 0.967. Sequence AGAGGACTCG has a switch fluorescence ratio of 1. Work on AGAGGATCG yielded a switch fluorescence ratio of 1.15. AGAGGGAAA was tested, and the switch fluorescence ratio was 1.01. AGAGGGAAAT showed a switch fluorescence ratio of 0.96. Sequence AGAGGGCAGT has a switch fluorescence ratio of 1.34. AGAGGGTCGT showed a switch fluorescence ratio of 0.966. AGAGTAATGC gave a switch fluorescence ratio of 1.17. AGAGTAGTT gave a switch fluorescence ratio of 1.03. Sequence AGAGTCCGGT has a switch fluorescence ratio of 1.01. AGAGTGAATG showed a switch fluorescence ratio of 0.989. AGAGTGTCT showed a switch fluorescence ratio of 0.999. Sequence AGAGTTGTCC has a switch fluorescence ratio of 1.03. In the case of AGAGTTTATG, the switch fluorescence ratio is reported as 1.02. AGAGTTTGTA was tested, and the switch fluorescence ratio was 1.01. Sequence AGATAACTTG has a switch fluorescence ratio of 1. Sequence AGATAGCAAG has a switch fluorescence ratio of 1.05. With AGATAGGACA the switch fluorescence ratio was 1.07. AGATCAACCG showed a switch fluorescence ratio of 1. Sequence AGATCAAGTC has a switch fluorescence ratio of 0.993. Work on AGATCACTGC yielded a switch fluorescence ratio of 1.05. AGATCAGAAG gave a switch fluorescence ratio of 0.981. For AGATCAGTTG, the switch fluorescence ratio was 0.998. AGATCATTGT gave a switch fluorescence ratio of 1.07. For AGATCCGGT, the switch fluorescence ratio was 0.996. For AGATCTCGCC, the switch fluorescence ratio was 1.05. AGATGACTGT showed a switch fluorescence ratio of 1.06. For AGATGAGCTA, the switch fluorescence ratio was 1. In the case of AGATGAGGCC, the switch fluorescence ratio is reported as 1.01. In the case of AGATGATGC, the switch fluorescence ratio is reported as 1.01. With AGATGATTAT the switch fluorescence ratio was 1.02. AGATGCCCCG gave a switch fluorescence ratio of 1.04. Sequence AGATGCGACT has a switch fluorescence ratio of 1.01. Work on AGATGCGAGC yielded a switch fluorescence ratio of 1. With AGATGCGGGA the switch fluorescence ratio was 1. In the case of AGATGGGAGT, the switch fluorescence ratio is reported as 0.973. With AGATGTAGTC the switch fluorescence ratio was 1. For AGATGTCTGT, the switch fluorescence ratio was 0.999. Sequence AGATTCAGGC has a switch fluorescence ratio of 1.01. With AGATTCATCT the switch fluorescence ratio was 1.01. AGATTCGGGG showed a switch fluorescence ratio of 1.04. AGATTCTAGA showed a switch fluorescence ratio of 1.08. AGATTGAAGA showed a switch fluorescence ratio of 0.972. Sequence AGATTGAGTT has a switch fluorescence ratio of 0.967. With AGATTGTGTA the switch fluorescence ratio was 1.01. AGATTTAGAA showed a switch fluorescence ratio of 0.979. Work on AGATTTAGGA yielded a switch fluorescence ratio of 0.982. Sequence AGATTTGAAT has a switch fluorescence ratio of 0.97. AGCAAACAGG was tested, and the switch fluorescence ratio was 1.68. For AGCAACACG, the switch fluorescence ratio was 1.55. Sequence AGCAACACTT has a switch fluorescence ratio of 1.64. For AGCAACCCAC, the switch fluorescence ratio was 1.53. Sequence AGCAAGAGTA has a switch fluorescence ratio of 1.05. AGCAAGTGGG was tested, and the switch fluorescence ratio was 1.08. Work on AGCAATTCC yielded a switch fluorescence ratio of 3.43. AGCACATATG gave a switch fluorescence ratio of 0.99. In the case of AGCACATGAC, the switch fluorescence ratio is reported as 1.73. AGCACCAGGA gave a switch fluorescence ratio of 1.28. AGCACCGGCG showed a switch fluorescence ratio of 1.03. AGCACGGGAC showed a switch fluorescence ratio of 1.39. In the case of AGCACGTCGA, the switch fluorescence ratio is reported as 1.08. With AGCACGTCTC the switch fluorescence ratio was 1.05. Work on AGCACTATTA yielded a switch fluorescence ratio of 1.01. AGCAGATA was tested, and the switch fluorescence ratio was 0.99. AGCAGCCTAT showed a switch fluorescence ratio of 1. AGCAGGTCTT showed a switch fluorescence ratio of 0.999. Work on AGCAGTATGT yielded a switch fluorescence ratio of 0.992. AGCAGTCTGC was tested, and the switch fluorescence ratio was 0.957. Work on AGCAGTGACC yielded a switch fluorescence ratio of 1.15. For AGCAGTTTTA, the switch fluorescence ratio was 0.991. With AGCATATGAG the switch fluorescence ratio was 1.06. For AGCATGATGT, the switch fluorescence ratio was 1.03. In the case of AGCATGTCAG, the switch fluorescence ratio is reported as 0.998. Sequence AGCATTGACG has a switch fluorescence ratio of 1.1. In the case of AGCATTGCCA, the switch fluorescence ratio is reported as 0.998. In the case of AGCATTTTTT, the switch fluorescence ratio is reported as 0.966. Sequence AGCCAACTGG has a switch fluorescence ratio of 1.02. With AGCCAATGGC the switch fluorescence ratio was 1. Sequence AGCCATAAGC has a switch fluorescence ratio of 1.01.
